# Experimental data reported in PubChem BioAssay AID504466 (National Center for Advancing Translational Sciences (NCATS), 2011).
# Screen size: about 330,000 compounds; about 4,200 (1.3%) were called active. This list was built around the results that the source calls inconclusive (neither active nor inactive); the mix of calls is not that of the screen. The call rests on the fitted dose curve; in most records, active means well fitted activation curve with a large enough effect; inconclusive means small, poorly fitted or top-dose-only effect; inactive means no such curve, though single readings can be large or run the other way. Where the call is inconclusive, the potency comes from a doubtful curve fit.
# Experiment: qHTS screen for small molecules that induce genotoxicity in human embryonic kidney (HEK293T) cells expressing luciferase-tagged ELG1; further: nearly all actives have a fitted effect of over 60% in size; on activity change, positive = activation: % of control where 0% means no effect
# Conditions: HEK293T ELG1-luciferase reporter, luminescence, 16 h; series mostly up to 46 µM; activity change, positive = activation: at the top concentration
# Summary of the method: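 Reporter readout depends on ELG1 protein level, which increases with genetic stress. After 16 hr compound exposure at 37 °C, luciferase activity was quantified using ONE-Glo.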
# Potency means the concentration at half of the fitted maximal effect; tags describe the fitted curve by direction and shape.
Compound,"activity change, positive = activation",Potency
O=S(=O)(c1ccc2c(c1)OCCO2)N(Cc1ccc(F)cc1)Cc1nnc(-c2cccs2)o1,inactive: -10.9%,
COc1cc(/C=N/Nc2cc(C)nc(N)n2)ccc1O,,"inconclusive: 16.4 µM [activator, partial curve, poor fit]"
Cn1nccc1C(=O)Nc1ccc2c(c1)OCO2,,"inconclusive: 16.4 µM [activator, partial curve]"
CCOC(=O)C1CCCN(c2c(Nc3ccc(C)c(C)c3)c(=O)c2=O)C1 (stereo not drawn),,"inconclusive: 29.1 µM [activator, partial curve, poor fit]"
Cc1cccc(OCC(=O)N/N=C\c2cn(C)c3ccccc23)c1,,"inconclusive: 29.1 µM [activator, partial curve, poor fit]"
CCOC(=O)c1c(NC(=O)CSc2nc3ccc(OC)cc3[nH]2)sc2c1CC(C)(C)NC2(C)C,inactive: -6.37%,
CCOC(=O)CCSc1nc(C)c2cc(OC)ccc2n1,,"inconclusive: 18.4 µM [activator, single point]"
Cn1c(C(=O)Nc2ccc3c(c2)OCCO3)cc2sccc21,,active: 2.06 µM
Cc1cccc(-n2c(C)cc(C(=O)NC3CCCCC3)c2C)c1,,"inconclusive: 7.31 µM [activator, partial curve, poor fit]"
Cc1cc(NC(=O)c2coc(=O)c(Br)c2)ccc1C(C)C,,"inconclusive: 29.1 µM [activator, single point]"
COc1cccc2sc(NC(=O)c3ccc(Br)s3)nc12,,"inconclusive: 14.6 µM [activator, partial curve]"
CC(C)C(=O)Nc1nc2cc3c(cc2s1)OCO3,,active: 18.4 µM
CCOC(=O)c1ccccc1NC(=O)C1CCN(c2ncnc3sc(C)c(C)c23)CC1,,"inconclusive: 5.8 µM [activator, full curve, poor fit]"
O=C(OCC(=O)c1ccc[nH]1)c1ccccc1,,"inconclusive: 23.1 µM [activator, partial curve, poor fit]"
COc1ccc(-c2noc(-c3ccoc3C)n2)cc1,,"inconclusive: 2.59 µM [activator, full curve, poor fit]"
COC(=O)Cc1[nH]c(Cl)nc1C(N)=O,inactive: 0.119%,
Cc1ccc2c(c1)N=C(c1ccccc1)CC(C(Cl)Cl)=N2,,"inconclusive: 4.61 µM [activator, full curve]"
CCOc1ccc2oc(C(=O)NCC3CCCO3)c(C)c2c1 (stereo not drawn),,"inconclusive: 20.6 µM [activator, partial curve]"
COc1ccc(CCC(C)Nc2cccc(F)c2)cc1 (stereo not drawn),inactive: -3.28%,
CC(C)OC(=O)c1ccc(COC(=O)c2cccc(-c3nnc(-c4ccccc4)o3)c2)cc1,,"inconclusive: 10.3 µM [activator, partial curve]"
CC(C)CCn1c(CN2CCN(C(=O)c3ccco3)CC2)nc2c1c(=O)n(C)c(=O)n2C,,"inconclusive: 16.4 µM [activator, partial curve, poor fit]"
CC(C)N1C(=O)CN(C2CCCCCC2)C(=O)C1c1ccccc1F (stereo not drawn),,"inconclusive: 16.4 µM [activator, partial curve, poor fit]"
CCc1nnc(NC(=O)c2ccc(C)o2)s1,,"inconclusive: 20.6 µM [activator, partial curve]"
Cc1cc(C)c(S(=O)(=O)c2ccc(C(C)(C)C)cc2)c(Cl)n1,inactive: -6.07%,
C/C(N)=C(/C#N)C(=O)CSc1nc2ccccc2[nH]1,,active: 20.6 µM

Compound,"activity change, positive = activation",Potency
COc1ccc(N2CC(C(=O)N3CCC(c4nc5ccccc5[nH]4)CC3)CC2=O)cc1 (stereo not drawn),inactive: 2.64%,
O=C(COc1ccc(Cl)cc1Br)NC(=O)NC1CCCC1,,"inconclusive: 9.2 µM [activator, partial curve]"
O=C(CCS(=O)(=O)c1ccc(F)cc1)N1CCOCC1,inactive: 21.2%,
N#C/C(=C\c1cccs1)C(=O)NCC1CCCO1 (stereo not drawn),,"inconclusive: 18.4 µM [activator, partial curve, poor fit]"
CC(=O)N1CCN(C(=O)CSc2cc(C)c(Br)cc2C)CC1,,"inconclusive: 25.9 µM [activator, single point]"
Cn1c(=O)c(C(=O)Nc2ncccc2O)c(O)c2ccccc21,,"inconclusive: 7.31 µM [activator, partial curve, poor fit]"
Cc1ccccc1-c1nc(-c2ccc(NC(=O)c3ccc4c(c3)OCO4)cc2)no1,,"inconclusive: 18.4 µM [activator, single point]"
COc1ccc(NC(=O)c2c(NC(=O)CNCC(C)C)sc3c2CCC3)c(OC)c1,,"inconclusive: 32.6 µM [activator, partial curve, poor fit]"
CCOc1cccc(/C=C/c2cc(C(=O)O)c3ccccc3n2)c1OC,,"inconclusive: 8.2 µM [activator, partial curve]"
CCOc1ccc(S(=O)(=O)N2CCC(C(=O)Nc3cc(S(C)(=O)=O)ccc3Cl)CC2)cc1,inactive: -0.769%,
Brc1ccc(-c2cn3nc4c(nc3n2)CCCC4)cc1,,"inconclusive: 0.1 µM [activator, full curve, poor fit]"
S=C(Nc1cccc(Cl)c1Cl)N1CCCC1,,"inconclusive: 29.1 µM [activator, partial curve, poor fit]"
O=C(NCc1ccc(F)cc1)c1ccccc1OCc1ccccc1,inactive: -1.83%,
COc1ccc(C2=Nn3c(nnc3-c3ccccc3OC)SC2)cc1OC,,"inconclusive: 1.84 µM [activator, full curve, poor fit]"
COc1ccccc1OCCn1c(=O)sc2ccccc21,,"inconclusive: 18.4 µM [activator, partial curve, poor fit]"
Cc1nn(CC(=O)NCc2ccccc2Cl)c(C)c1[N+](=O)[O-],inactive: 0.452%,
O=C(COc1ccc2ccc(=O)oc2c1)Nc1nccs1,,"inconclusive: 8.2 µM [activator, partial curve]"
Cc1cc(C)c(NC(=O)CSCc2c(C)noc2C)c(Cl)c1,inactive: 2.51%,
Cc1ccc(OCc2cn3cccnc3n2)cc1,,active: 18.4 µM
Cc1c(Cl)cccc1NC(=O)c1cc(C2CC2)on1,,"inconclusive: 9.2 µM [activator, partial curve, poor fit]"
CCC(=O)n1nc(-c2ccco2)nc1SCc1ccccc1,,"inconclusive: 20.6 µM [activator, single point]"
CCOC(=O)c1cc2cc(CC(=O)c3ccc(OCC)cc3O)ccc2o1,,"inconclusive: 20.6 µM [activator, single point]"
CCOc1ccc(OCCSc2ccc(S(=O)(=O)N3CCN(C)CC3)cn2)cc1,inactive: -3.9%,
CCOC(=O)N1CCN(S(=O)(=O)c2ccc(C(=O)Nc3ccc4c(c3)C(=O)NC4=O)cc2)CC1,inactive: 7.5%,
N#Cc1c(/N=C/c2cc3ccccc3s2)sc2c1CCC2,,"inconclusive: 2.06 µM [activator, full curve]"

Compound,"activity change, positive = activation",Potency
O=C(NCCC1=CCCCC1)c1ccc([N+](=O)[O-])cc1,,"inconclusive: 2.59 µM [activator, partial curve]"
COc1cccc(-c2nnc(-c3ccccc3[N+](=O)[O-])o2)c1,,"inconclusive: 9.2 µM [activator, partial curve]"
COC(=O)c1ccc(CSc2nccn2C)cc1,,active: 13 µM
Cn1c(CCCOc2ccc(Cl)cc2Cl)nnc1SCC(=O)Nc1cccc(F)c1,inactive: 0.342%,
O=C(CC(=O)c1ccccc1)Nc1ccccn1,,active: 14.6 µM
CN(C)c1cccc(C(=O)NCCCSc2ccccc2)c1,,"inconclusive: 23.1 µM [activator, partial curve, poor fit]"
O=C(Nc1ccccc1C(F)(F)F)c1ncn[nH]1,inactive: 0.0671%,
CC1Sc2ccc(C(=O)Nc3ncccc3O)cc2NC1=O (stereo not drawn),,"inconclusive: 8.2 µM [activator, partial curve]"
CCOC(=O)c1ccc2[nH]c3c(c2c1)CN(C)CC3,,"inconclusive: 29.1 µM [activator, single point]"
CN(C)c1ccc(NC(=S)c2ccccn2)cc1,,"inconclusive: 0.164 µM [activator, partial curve]"
CCOC(=O)Cc1csc(NC(=O)/C=C/c2ccc(Br)o2)n1,inactive: -8.32%,
O=C(C1CC(c2ccc(F)cc2)=NO1)N1CCc2ccccc2C1 (stereo not drawn),,"inconclusive: 29.1 µM [activator, partial curve, poor fit]"
COc1ccc(-c2nnc(SCC(=O)c3ccc(O)cc3O)o2)cc1,,"inconclusive: 20.6 µM [activator, single point]"
CC1=Nn2c(nc3sc4c(c3c2=O)CCCC4)SC1,,"inconclusive: 23.1 µM [activator, partial curve, poor fit]"
CSc1nc(N)nc(SCC(=O)C(C)(C)C)c1C#N,,"inconclusive: 20.6 µM [activator, partial curve, poor fit]"
COc1ccc2cc(CCNC(=O)c3ccco3)c(=O)[nH]c2c1,,active: 10.3 µM
COc1ccccc1NC(=O)c1oc2ccccc2c1NC(=O)C1CC1,inactive: -1.88%,
COc1ccc(N2C(=O)c3ccccc3NC2c2cccnc2)cc1 (stereo not drawn),inactive: 9.19%,
CC1CCN(C(=O)CS(=O)(=O)Cc2ccccc2)CC1,,"inconclusive: 16.4 µM [activator, partial curve]"
Cc1ccnc(NC(=O)c2cnc(Cl)c(Cl)c2)c1,,"inconclusive: 20.6 µM [activator, partial curve, poor fit]"
Cc1ccn2cc(C(=O)Nc3nnc(C)s3)nc2c1,,"inconclusive: 9.2 µM [activator, single point]"
COC(=O)c1sc(NC(=O)c2cc3c(s2)CCCC3)nc1C,,active: 1.16 µM
COc1ccccc1C(=O)Nc1cc(C)on1,,"inconclusive: 23.1 µM [activator, partial curve, poor fit]"
